Results taken from paper PMC4336329 (PLoS ONE, 2015).
Hit rate of the full screen: of about 310,000 compounds, about 2,200 (0.71%) showed an effect of 50% or more. Effects have a minus sign here. The list shows a part of the results.

Each compound was assayed against human ether-à-go-go-related gene (hERG) potassium channel (human, UniProt Q12809) (assay: primary screen, population patch clamp on CHO cells stably expressing hERG).
Sequence of human ether-à-go-go-related gene (hERG) potassium channel (Q12809 whole entry, looked up): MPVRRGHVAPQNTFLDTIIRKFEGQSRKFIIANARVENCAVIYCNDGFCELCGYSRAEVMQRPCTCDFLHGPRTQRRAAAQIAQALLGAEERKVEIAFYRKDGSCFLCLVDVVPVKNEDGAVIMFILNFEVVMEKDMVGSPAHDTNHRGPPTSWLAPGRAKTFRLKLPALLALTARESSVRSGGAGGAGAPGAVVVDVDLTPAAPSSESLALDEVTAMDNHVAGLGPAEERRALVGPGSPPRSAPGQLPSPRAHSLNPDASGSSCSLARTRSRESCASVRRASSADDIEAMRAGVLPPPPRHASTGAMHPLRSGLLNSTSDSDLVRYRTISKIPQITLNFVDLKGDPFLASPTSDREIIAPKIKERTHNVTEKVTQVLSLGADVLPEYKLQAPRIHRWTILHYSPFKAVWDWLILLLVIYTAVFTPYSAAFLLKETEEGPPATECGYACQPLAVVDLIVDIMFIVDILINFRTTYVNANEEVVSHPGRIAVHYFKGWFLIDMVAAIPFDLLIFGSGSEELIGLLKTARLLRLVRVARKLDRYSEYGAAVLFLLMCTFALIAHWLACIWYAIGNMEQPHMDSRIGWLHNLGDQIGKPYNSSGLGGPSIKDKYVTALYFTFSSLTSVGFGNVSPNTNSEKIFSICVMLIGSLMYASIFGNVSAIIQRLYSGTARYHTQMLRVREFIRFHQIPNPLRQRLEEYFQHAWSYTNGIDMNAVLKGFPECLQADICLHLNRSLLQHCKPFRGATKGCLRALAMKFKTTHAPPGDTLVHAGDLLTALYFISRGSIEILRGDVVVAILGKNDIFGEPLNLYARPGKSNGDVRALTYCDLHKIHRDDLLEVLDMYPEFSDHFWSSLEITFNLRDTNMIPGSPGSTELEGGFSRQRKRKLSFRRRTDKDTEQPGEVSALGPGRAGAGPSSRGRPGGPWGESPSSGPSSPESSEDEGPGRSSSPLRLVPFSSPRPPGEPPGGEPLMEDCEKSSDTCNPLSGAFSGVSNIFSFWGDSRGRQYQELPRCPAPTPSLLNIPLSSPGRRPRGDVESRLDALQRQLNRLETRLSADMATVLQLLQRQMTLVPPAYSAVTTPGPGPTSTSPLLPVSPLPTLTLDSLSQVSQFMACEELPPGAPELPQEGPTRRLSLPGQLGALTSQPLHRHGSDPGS

SMILES | hERG current change (%, negative = inhibition) at 1uM [%]
COC(=O)c1ccc(N2C(=O)c3cc(N4CCOCC4)c([N+](=O)[O-])cc3C2=O)cc1 | 8.91
Cc1ccc(N=Cc2nc(-c3ccco3)oc2O)cc1 | 6.76
COc1ccc(OC)c(-c2cc(C(=O)N/N=C(\C)c3cccnc3)c3ccccc3n2)c1 | -25.3
COC(=O)c1ccc2c(=O)[nH]c(CSc3nnc(C(F)(F)F)n3C)nc2c1 | 17.8
COc1cc(OC)cc(C(=O)NNC(=O)c2cc3c(s2)CCCC3)c1 | 17.1
N/C(=N\OCc1ccc([N+](=O)[O-])cc1)c1ccccn1 | 9.75
COc1cc(/C=C2/NC(=O)N(CC(=O)Nc3ccc(C)cc3)C2=O)ccc1Oc1ccc([N+](=O)[O-])cn1 | 9.21
COc1ccccc1CNC(=O)c1ccc(Cl)c(NC2=NC3CS(=O)(=O)CC3S2)c1 (stereo not drawn) | 7.81
Cc1cc(C)cc(NC(=S)NC2CC3CCCC(C2)N3C2CC2)c1 (stereo not drawn) | -32
COc1cccc(/C=C/C(=O)OCC(=O)Nc2cccc(S(=O)(=O)N(C)C)c2)c1 | 5.69
O=C(C1CSC2(c3ccc(F)cc3)CCC(=O)N12)N1CCCCCC1 (stereo not drawn) | -12.1
CCCN(CCC)CCNS(=O)(=O)c1ccc2c(c1)CCN2C(=O)C1CCC1 | 0.216
O=C(Nc1ccn(Cc2c(F)c(F)c(F)c(F)c2F)n1)c1cccc(Cn2cc([N+](=O)[O-])cn2)c1 | 8.85
CC(C)CCC1(CCc2ccncc2)C(=O)NC(=O)NC1=O | -7.04
Cc1cccc(-n2c(O)c(/C=N/Nc3nc4c(c(=O)n(C)c(=O)n4C)n3C)c(=O)[nH]c2=S)c1 | 6.01
O=C(OCC(=O)N1CCN(Cc2ccccc2)CC1)c1ccc(Cl)cc1 | -21
CCNC(=S)NNC(=O)c1cccn(Cc2ccc(Cl)cc2)c1=O | 8.29
Cc1ccc(S(=O)(=O)N(C)C)cc1NC(=O)C1CCCCC1 | -1.95
CCOc1ccc(-c2nc(C#N)c(N3CCOCC3)o2)cc1 | 8.72
CCn1c(COc2cccc3cccnc23)nnc1SCC(=O)OC | 5.96
Cc1oc2c(c1C(=O)O)C(=O)c1ccccc1C2=O | 7.47
CC(=O)C1=C(O)C(=O)N(c2nccs2)C1c1ccc(Br)cc1 (stereo not drawn) | 13.3

SMILES | hERG current change (%, negative = inhibition) at 1uM [%]
O=C(Cn1c(=O)[nH]c2ccsc2c1=O)NC1CCCCCC1 | 7.77
Cc1ccc(OCc2cc(C(=O)NCC3COCCO3)no2)cc1C (stereo not drawn) | 8.44
Cn1c(SCc2nc3ccccc3c(=O)[nH]2)nc2ccccc21 | 15.2
Cl.O=C(NCC(c1cccs1)N1CCOCC1)c1ccccc1NS(=O)(=O)c1ccc(Cl)cc1 (stereo not drawn) | 14.1
COc1cc(S(=O)(=O)NCc2cccnc2)c(OC)cc1Br | 24.5
Cc1cc2n(n1)C(c1ccccc1)Nc1ccccc1-2 (stereo not drawn) | 14.8
CCCc1nnc(NC(=O)CCC(=O)NC2CC2)s1 | 13.7
CC(=O)Nc1ccc(S(=O)(=O)N2CCN=C2SCc2ccccc2C)cc1 | 10.1
CC(=O)c1cnc2cc(-c3cccc(Br)c3)nn2c1C | 9.39
Cc1ccc(N2C(=O)N(CC(=O)Nc3ccccc3C(F)(F)F)C(=O)C2C)cc1 (stereo not drawn) | 5.43
CCS(=O)(=O)c1ccc(-c2csc(-c3ccc(Cl)cc3)n2)c(Cl)c1Cl | 14.3
COc1cccc2cc(C(=O)NC(C)c3ccccc3)c(=O)oc12 (stereo not drawn) | 12.6
O=c1ccc(-c2ccccc2)nn1Cc1ccccc1 | 11.1
O=C(NC(=S)Nc1ccc(S(=O)(=O)Nc2nccs2)cc1)c1ccccc1 | 18.2
NNC(=O)CNC(c1ccccc1)c1cc(Br)ccc1N (stereo not drawn) | 7.32
C=CCNC(=O)NC(=O)COC(=O)c1ccccc1Sc1ccc(C(F)(F)F)cc1[N+](=O)[O-] | 15.3
CC1(C)CC(=O)c2c(O)cc(OCC(=O)NCCc3ccc(S(N)(=O)=O)cc3)cc2O1 | -8.77
Cc1nn(Cc2c(Cl)cccc2Cl)c(C)c1NC(=O)Cn1nc([N+](=O)[O-])c(Cl)c1C | 13.9
O=C(c1cccc(Cl)c1)N1CCC(N2CCC(C(=O)N3CCOCC3)CC2)CC1 | -1.41
CC(=O)Nc1ccc(S(=O)(=O)NCCc2csc(C)n2)cc1 | 2.8
CCOc1ccc(N2CC(C(=O)Nc3ccccc3N3CCOCC3)CC2=O)cc1 (stereo not drawn) | 4.41
Cc1nnc(SCC(=O)N2CCN(S(=O)(=O)c3ccc(Cl)cc3)CC2)[nH]c1=O | 15.6

SMILES | hERG current change (%, negative = inhibition) at 1uM [%]
CCN(CC(=O)NC1CCS(=O)(=O)C1)C(=O)c1cc(OC)c(OC)c(OC)c1 (stereo not drawn) | 7.09
CCN(C(C)=O)c1nc(CCl)cs1 | 10.6
CC(C)(C)NC(=O)COc1ccc(CNCc2ccccn2)cc1.Cl | 14.6
Cc1c(C(=O)NCC2COc3ccccc3O2)oc2ccc(S(=O)(=O)N3CCOCC3)cc12 (stereo not drawn) | -6.02
CCOC(=O)N1CCN(C(=O)CSc2nc(=O)n3cccc(C)c3n2)CC1 | 3.08
Cc1cc(N2CCOCC2)nc2ccc(NC(=O)CCC(=O)N3CCN(c4cccc(C(F)(F)F)c4)CC3)cc12 | 12.4
Cc1cc(C(C)(C)C)ccc1OCCn1ccnc1.O=C(O)C(=O)O | 6.53
Cc1ccc(Cc2nc3ccccc3[nH]2)cc1 | 11.3
Cc1ccc(C2CC(=O)NC3=C2C(=O)CCC3)cc1Br (stereo not drawn) | 8.67
CN(CC(=O)Nc1ccccc1Cl)C(=O)c1ccc(COc2ccccc2)cc1 | 5.44
C/C(=C\c1ccccc1)CN1CCN(c2ccccc2)CC1 | 9.63
N#CC1(NC(=O)CSc2nnc(-c3ccccc3F)o2)CCCCC1 | 4.07
Cc1ccccc1Oc1cc(NC(=O)CCCn2nc(C)c([N+](=O)[O-])c2C)cc([N+](=O)[O-])c1 | 16.3
COc1cc(NC(=O)c2cc(Cl)ccc2Cl)ccc1-c1cc2ccccc2oc1=O | 5.64
NC(=O)C1CCCc2c1n(Cc1ccccc1)c1ccccc21 (stereo not drawn) | 9.63
O=C(CNC(=O)c1sc2ccccc2c1Cl)NCc1ccccc1 | 3.9
Cc1ccc(CNC(=O)c2cnc(-c3ccccn3)nc2C(F)(F)F)cc1 | 15
Cc1ccc(NC(=O)CCS(=O)(=O)c2cc3c(cc2Cl)NC(=O)CO3)cc1 | 9.92
COc1cccc(-c2noc(C3CCCN(C(=O)c4ccccc4OC)C3)n2)c1 (stereo not drawn) | 9.27
COc1ccccc1/C=N/OC(=O)c1ccc(F)cc1 | 3.2
CCOc1ccc(CCNC(=O)C2CCCN(c3nn4c(=O)cc(C)nc4s3)C2)cc1OCC (stereo not drawn) | 6.88
CCN(CC)c1ccc(Nc2nc(N3CCOCC3)c3ccccc3n2)cc1 | -7.62

SMILES | hERG current change (%, negative = inhibition) at 1uM [%]
CC(=O)NCCCc1nc2ccccc2n1Cc1cc(C)ccc1C | 13
O=C(Nc1cc2c(ccc3ccccc32)oc1=O)C1CCCCC1 | -3.41
Cc1ccc(C(=O)CSc2nc(C)cc(SCc3nnc(-c4ccccc4)o3)n2)cc1 | 11.6
O=C(c1ccccc1)c1ccc(-c2ccc(O)cc2)cc1 | 8.08
CC(C)N(Cc1nc(-c2ccccc2)no1)C(=O)c1ccc2c(c1)OCO2 | -6.98
Cn1c2ccccc2c2c(C(=O)N3CCN(c4ccccc4)CC3)cn(C3CCCC3)c(=O)c21 | 7.5
O=c1c2cc3ccccc3n2cnn1Cc1ccccc1F | -3.7
O=C1Nc2ccc(Br)cc2C1Cc1ccccc1F (stereo not drawn) | 9.99
Cc1nc(/N=C(\N)NC(=O)c2ccccc2)nc2ccccc12 | 5.27
Cc1ccc(NC(=O)NCCN2CCCCC2)cc1C | 1.9
CCOc1ccccc1NC(=O)/C=C/c1ccccc1[N+](=O)[O-] | -1.98
Cc1cc(Cl)ccc1OCC(=O)NCC(=O)N/N=C/c1ccco1 | 8.32
O=C1CCN(S(=O)(=O)c2ccc(Cl)cc2)CC1 | -0.748
COc1ccc2ccc(OCC(=O)N3c4ccccc4NC(=O)CC3C)cc2c1 (stereo not drawn) | -4.14
COc1ccc(C(=O)Nc2sc(C)c(C)c2CN2CCOCC2)cc1 | 12.8
COc1ccc(NC(=O)CC2C(=O)N(C)C(=S)N2CCc2ccccc2)cc1 (stereo not drawn) | 8.62
COc1cccc(/C=C/C(=O)OCC(=O)NC(=O)NC2CCCC2)c1 | 9.71
CCCCc1cc(=O)oc2cc(OCC(=O)N(CC)CC)ccc12 | 3.9
O=C1CC(N2CCN(C3CC(=O)N(CCc4ccccc4)C3=O)CC2)C(=O)N1CCc1ccccc1 (stereo not drawn) | 7.64
COc1ccc(CC(=O)NN2C(=O)c3ccccc3C2=O)cc1 | 6.7
O=C(O)[C@@H]1CCCN1c1ncnc2sc3c(c12)CCC3 | -1.36
